By inhibition is commonly meant the change of the read-out against control, counted positive when it falls.

Molecules are shown by their SMILES. Among all 340,000 compounds or so, about 6,900 (2%) were called active. Cut-off read from the data, not from the text of the source: active = inhibition above about 30%; inactive = below that, where a call was filed. The entries are a selection whose mix differs from that of the whole data set. The source gives no active or inactive call for entries shown without one.

Sequence of UniProt P14416 (P14416 whole entry, looked up): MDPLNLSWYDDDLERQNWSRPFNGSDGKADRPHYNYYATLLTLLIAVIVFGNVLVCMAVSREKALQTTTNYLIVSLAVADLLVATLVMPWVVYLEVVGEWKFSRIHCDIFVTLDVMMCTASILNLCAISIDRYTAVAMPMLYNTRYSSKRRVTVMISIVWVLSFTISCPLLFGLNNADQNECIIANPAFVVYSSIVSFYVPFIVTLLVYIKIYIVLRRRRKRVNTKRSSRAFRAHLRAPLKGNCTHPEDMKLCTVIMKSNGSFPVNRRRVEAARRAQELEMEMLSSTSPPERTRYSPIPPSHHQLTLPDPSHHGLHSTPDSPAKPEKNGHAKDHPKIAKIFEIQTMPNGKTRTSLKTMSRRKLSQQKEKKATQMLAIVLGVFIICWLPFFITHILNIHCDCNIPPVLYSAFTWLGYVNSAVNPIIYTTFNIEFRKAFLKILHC

The target of the experiment is D(2) dopamine receptor (Homo sapiens) (UniProt P14416). Kind of experiment: HTS Assay for Allosteric Antagonists of the Human D2 Dopamine Receptor: Primary Screen for Antagonists. Note: 0% is about no effect. Conditions: HEK293 TREx D2 cells, calcium flux, dopamine EC80; at 10 µM; stronger effect = higher value. The method, boiled down:
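In this primary screen, negative modulation is detected by tracking calcium flux after an EC80 dopamine challenge in inducible HEK293 T-REx D2 cells preexposed to test compound for 180 s.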
On the technique in general: Calcium assays in cells follow changes in intracellular calcium, usually with a dye or a luminescent sensor.
For the molecule `COc1ccc(C2c3[nH]c4ccc(OC)cc4c3CCN2C(=O)Nc2ccccc2)cc1` (stereo not drawn), the inhibition is 10.9%. The result for `CCC(=O)Nc1sc2c(c1C(=O)Nc1cccc(C)c1)CCCC2` reads -13.6%; that for `Cc1ccc(NC(=O)Cn2cc(S(=O)(=O)c3ccccc3)c(=O)c3cc4c(cc32)OCO4)cc1`, 5.58%; that for `COc1ccccc1Nc1nn2c(=O)c3ccc(C(=O)NC(C)c4ccccc4)cc3nc2s1` (stereo not drawn), 3.16%. On to `Cc1cccc(C(=O)Nc2ccc(OCc3cc(=O)n4c5c(sc4n3)CCCC5)cc2)c1`, for which the inhibition is 5.99%. For `C=CCC(CC=C)(CNC(=O)C(=O)Nc1ccc(C(=O)OCC)cc1)c1ccccc1` the value was 4.88%; for `O=C(CN(CCN1CCOCC1)C(=O)Cn1nnc(-c2ccc(F)cc2)n1)NC1CCCCC1`, active: 70.6%. Consider `Cc1ccc(NC(=O)C(Cc2ccccc2)n2cccc2)cc1C` (stereo not drawn), for which the inhibition was -1.12%. For `Cc1ccc(-c2nc3ccccn3c2Nc2ccc3c(c2)OCO3)o1` the value was -4.22%; for `COc1ccc(-c2nn(-c3cccc([N+](=O)[O-])c3)c3c2cnc2cc4c(cc23)OCO4)cc1`, 3.95%.

As for `CC(C)c1ccc(Nc2nc3c(S(=O)(=O)c4ccc(Br)cc4)nnn3c3ccsc23)cc1`, the inhibition worked out at 4.82%. For `CCCN(C(=O)c1cc2c(s1)-c1c(C)cccc1OC2)c1ccc(OCC)cc1`, the inhibition is -2.67%. For the molecule `CCOC(=O)c1cc(-c2ccc(C)cc2)n(CC(=O)NC2CCCCCC2)c1C`, the inhibition was -0.596%. On to `CCSc1nnnn1-c1cccc(C(=O)O)c1`, for which the inhibition was -5.62%.

In the case of `Cc1cc2nc(-c3cccc(NC(=O)CSc4ccc(Cl)cc4)c3)oc2cc1C`, the inhibition turned out to be 1.3%. The result for `Cc1ccc(CNC(=O)c2cccc(-n3cnc4cccnc43)c2)cc1` reads 4.73%. The result for `COc1ccc(OCc2cc(C(=O)N(C)CCC3CCOCC3)no2)c(Cl)c1` reads active: 65.2%; that for `CCc1ccc(NC(=O)CCNS(=O)(=O)c2ccc3c(c2)CCCC(=O)N3)cc1`, -4.08%; that for `COc1cccc(C(=O)Nc2c3c(nn2-c2ccc(Cl)cc2)CS(=O)(=O)C3)c1`, 15.6%. For `CCOC(=O)c1scc(-c2ccccc2)c1S(=O)(=O)N1CCN(c2ccccc2OC)CC1`, the inhibition is 5.76%.

On to `COc1ccc(NC(=O)c2oc3ccc(S(=O)(=O)N(C)C4CCCCC4)cc3c2C)cc1`, for which the inhibition came out at 0.134%. For the molecule `Cc1ccc(CNC(=O)CSc2nc3n[nH]c(C)c3c(=N)n2-c2cccc(C)c2)cc1`, the inhibition was 11.6%. In the case of `CCOc1ccc(NC(=O)Cn2cc(S(=O)(=O)N3CCN(c4ccccc4F)CC3)c3ccccc3c2=O)cc1`, the inhibition is 6.22%.

For the molecule `O=C(NCCc1csc2nc(-c3cccc(F)c3)nn12)c1ccc(Br)o1`, the inhibition is -12.6%.

For `COc1ccc(N(CC(=O)N2CCN(c3ccc(F)cc3)CC2)S(=O)(=O)c2c(C)n[nH]c2C)cc1`, the inhibition came to 1.1%. On to `COc1ccc(-c2noc(-c3ccc(N4CCC(C)CC4)c([N+](=O)[O-])c3)n2)cc1OC`, for which the inhibition was -10.9%. Consider `CCCCNc1nc2c(c(=O)n(Cc3ccc(Cl)c(Cl)c3)c(=O)n2C)n1C`, for which the inhibition is -0.463%. For `CCOc1ccc(CCNC(=O)CCN2N=C(c3ccc(OC)cc3)CCC2=O)cc1OCC` the value was 1.11%; for `COc1ccc(N2CCN(C(=O)c3cc(NS(=O)(=O)c4ccc(F)cc4)ccn3)CC2)cc1`, -8.52%; for `CCOc1ccc2[nH]c(=O)c(CN(CCO)C(c3nnnn3C3CCCCC3)C(C)C)cc2c1` (stereo not drawn), active: 34.8%. Take `Cc1ccc(C)c(NC(=O)CSc2ncc3c(n2)-c2cc(Cl)ccc2N(Cc2ccccc2F)S3(=O)=O)c1`: the inhibition is -4.23%. `Cc1ccc(C)c(N2CCN(C(=O)CCn3c(=O)[nH]c4ccccc4c3=O)CC2)c1`: the inhibition is -8.77%. In the case of `CCCSCCCNC(=O)c1cc2n(n1)CCCN(Cc1ccc(C)cc1)C2=O`, the inhibition is -1.84%. `COc1ccc(Cn2ccc3nc(C)c(C(=O)NCc4ccc(C)cc4)cc3c2=O)cc1`: the inhibition came out at 6.43%. For `CC1(C)CC(=O)c2cc(-c3nc(-c4ccc(Cl)cc4)cs3)c(=O)n(-c3ccc(F)cc3)c2C1`, the inhibition was determined as 21%. As for `Cc1cc(Cl)ccc1NC(=O)CCn1nc(C)c2c(C)n(-c3ccccc3)nc2c1=O`, the inhibition is 2.15%.

Take `O=C(CCC1N=C2c3ccccc3N=C(SCc3ccccc3Cl)N2C1=O)N1CCN(c2ccccc2)CC1` (stereo not drawn): the inhibition turned out to be 4.06%. Consider `COC(=O)c1ccc(NC(=O)c2cccc3c2C(=O)N(C2CCCCC2)C3)cc1`, for which the inhibition is 4.09%. The result for `COC(=O)CC1Oc2ccc(C)cc2-n2cc(-c3ccc(F)cc3)nc21` (stereo not drawn) reads 3.64%; that for `Cc1noc2ncnc(N3CCN(c4ccccc4F)CC3)c12`, -9.07%; that for `COC(=O)c1ccc(C(=O)Nc2ccc(-c3nc4cc(NC(=O)c5ccc(C(=O)OC)cc5)ccc4o3)cc2)cc1`, 4.82%. Take `COc1ccc(CN(Cc2ccco2)c2cnc(S(C)(=O)=O)nc2C(=O)Nc2ccc(C)c(C)c2)cc1`: the inhibition was -2.01%.

Take `Cc1ccc(Cl)cc1NC(=O)Cn1cc2c(n1)CCCCC2`: the inhibition is -0.573%. As to `CCSc1ncc(Cl)c(C(=O)Nc2ccc(S(=O)(=O)Nc3nccc(C)n3)cc2)n1`, the inhibition is -12%. The result for `Cc1cccc(C)c1OCCn1c(C2CC(=O)N(Cc3ccc(F)cc3)C2)nc2ccccc21` (stereo not drawn) reads -4.61%; that for `CCCCNCC1CCCO1` (stereo not drawn), active: 69.6%; that for `O=C(CCS(=O)(=O)c1cccc2nonc12)Nc1cccc(F)c1`, 9.07%.

As for `CC(C)NC(=O)CSc1nc2ccccc2c(=O)n1Cc1ccc(C(=O)NC(C)C)cc1`, the inhibition was -10.4%. For `CC(CNC(=O)c1ccc2c(c1)nc1n2CCOC1)c1ccccc1` (stereo not drawn), the inhibition turned out to be 5.01%. Take `O=C(CSc1nc(=O)[nH]c2c1CCC2)NCc1ccc(Cl)cc1`: the inhibition was determined as 24.4%.

In the case of `CC(Sc1nc2ccccc2[nH]1)C(=O)Nc1ccc2c(c1)OCCO2` (stereo not drawn), the inhibition is active: 65.8%. As to `Cc1cc2c(cc3c(=O)n(CC(=O)NCc4ccccc4Br)ncn32)s1`, the inhibition was -3.33%.

`CCc1c(C)nc2nncn2c1NCc1ccc(OC)cc1`: the inhibition is 9.37%. For the molecule `Cc1ccc(Cc2c(C)nc3c(-c4ccccc4)c(C)[nH]n3c2=O)cc1`, the inhibition was 7.86%. For `Cc1ccc(-n2nc(C)c3c(C(=O)O)cc(C)nc32)cc1` the value was 13.5%; for `CCOC(=O)CSc1nnc2n(-c3ccccc3)c(=O)c3c4c(sc3n12)COC(C(C)C)C4` (stereo not drawn), -17.4%; for `COc1ccc(C(=O)[C@H]2[C@H]3C(=O)N(c4ccccc4)C(=O)[C@H]3C3C=CC=NN32)cc1` (stereo partly drawn), active: 43.1%. Consider `CCCCN(CC)CCNC(=O)C1CCN(c2nnc(C)c3c(C)n(-c4ccc(C)cc4)nc23)CC1`, for which the inhibition was -18.1%.

Turning to `Cc1cc(N2CCC(C(=O)Nc3ccc(Cl)cc3)CC2)n2nc(C)c(-c3ccc(Cl)cc3)c2n1`, the inhibition is -8.16%. As for `CCOC(=O)c1noc2nc(C)n(CC(=O)Nc3ccc(OC)c(Cl)c3)c(=O)c12`, the inhibition is -2.23%.

As for `O=C(O)CSc1nnc(-c2ccc(O)cc2)o1`, the inhibition was -8.3%.

With `Cc1ccc(CC(=O)Nc2c(C(=O)N3CCN(c4ccccc4)CC3)oc3ccccc23)cc1`, the inhibition turned out to be 1.92%. With `CCOc1ccc(-c2cc(C(=O)NCCc3ccccc3)c3c(-c4ccc(C)cc4)[nH]nc3n2)cc1`, the inhibition amounted to 1.36%. Regarding `CCN(CC)c1ccc(NS(=O)(=O)c2ccc(-c3coc(C)n3)cc2)c(C)c1`, the inhibition is 2.02%. `CCN(CC)c1cc(C)c2cc(NC(=O)/C=C/c3ccccc3OC(C)C)ccc2n1`: the inhibition is -8.91%. Turning to `Cc1ccc(Oc2nc3ccccn3c(=O)c2/C=C(\C#N)c2nc3ccccc3s2)c(C)c1`, the inhibition worked out at 5.61%. For `Cc1cc(C)c2c(=O)c3c(oc2c1)C(=O)N(Cc1ccco1)C3c1ccc(F)cc1` (stereo not drawn) the value was 4.13%; for `CC(=O)N1CCc2c(sc3c2c(=O)n(-c2cccc(Cl)c2)c(=O)n3Cc2ccc(F)cc2Cl)C1`, -7.33%. On to `Cc1cc(-c2ccc(C)c(S(=O)(=O)N3c4ccccc4CC3C)c2)on1` (stereo not drawn), for which the inhibition was -3.22%.

Take `CCOC(=O)c1c(NC(=O)/C=C/c2ccc(OCC)cc2)sc2c1CCCC2`: the inhibition was -8.39%.

Regarding `O=C(NCc1ccc2c(c1)CCN2C(=O)c1ccc(Cl)cc1)c1ccco1`, the inhibition was -3.96%.

As for `Cc1nnc(N2CCN(c3ccccc3F)CC2)c2c1nnn2Cc1ccccc1Cl`, the inhibition was found to be 1.58%.

Turning to `CCOc1ccc(NCc2cccn2-c2nnc(N3CCC(C(=O)NCc4ccc(C)cc4)CC3)s2)cc1`, the inhibition was -9.71%. Take `CCc1nnc(NC(=O)CSc2nccn2Cc2ccc(F)cc2)s1`: the inhibition is -13.8%. On to `COc1ccc(N2CCN(CC(O)COc3ccc(C(C)C)c(C)c3)CC2)cc1` (stereo not drawn), for which the inhibition worked out at 9.51%. For the molecule `CC(NC(=O)C(=O)Nc1c2c(nn1-c1ccccc1)CSC2)c1ccccc1` (stereo not drawn), the inhibition amounted to 18.2%. For `Cc1ccc2c(c1)c(=O)c(C(=O)c1ccncc1)cn2CC(=O)Nc1ccc(C(C)C)cc1` the value was -3.48%; for `Cc1ccc(N2CC(NC(=O)c3ccc(Br)o3)CC2=O)cc1C` (stereo not drawn), 24%; for `Cc1nn(CCC(=O)NCc2ccc(N(C)C)cc2)c(=O)c2nn(-c3ccccc3)c(C)c12`, -5.39%. Turning to `COc1cccc(NC(=O)Cn2nc3c4ccccc4n(Cc4cccc(F)c4)cc-3c2=O)c1`, the inhibition is -3.41%. For the molecule `O=[N+]([O-])c1ccccc1-c1ccc(CN2CCN(c3ccccc3)CC2)o1`, the inhibition is active: 52.3%. For `O=C(NC1CC1)c1ccc(Cn2c(SCc3ccccc3F)nc3cccnc32)cc1`, the inhibition is -22.9%.

For `Cc1cccc(-n2ncc(C(=O)N3CCN(C(=O)c4ccco4)CC3)c2C2CCN(C(=O)OC(C)(C)C)CC2)c1`, the inhibition was -9.34%. Consider `Cc1ccc2c(=O)cc(C(=O)Nc3ccc(S(=O)(=O)Nc4onc(C)c4C)cc3)oc2c1`, for which the inhibition is -4.11%.

On to `COC(=O)c1c(NC(=O)c2nc(SCc3ccc(C)cc3)ncc2Cl)sc2c1CCCC2`, for which the inhibition stood at 24%.

On to `CCCCCNS(=O)(=O)c1ccc(N2CCCCS2(=O)=O)cc1`, for which the inhibition was -3.12%. For `COc1ccc(NC(=O)Cn2c(=O)n(CCC(=O)NCCc3ccc(OC)c(OC)c3)c(=O)c3ccccc32)cc1Cl` the value was -7.1%; for `CCOCCCNC(=O)c1[nH]c2cc(OC)ccc2c1Sc1ccccc1`, 14.6%; for `CCOc1ccc(/C=N/n2c(-c3ccccc3)n[nH]c2=S)cc1`, active: 41.2%. With `COc1ccc(CCC(=O)NCc2nc3cccnc3n2Cc2ccc(C)cc2)cc1`, the inhibition was found to be 11.8%. Regarding `Cc1ccc(S(=O)(=O)NCC(c2ccco2)N2CCN(c3ccccc3F)CC2)cc1` (stereo not drawn), the inhibition is -28.3%.

Take `Cc1cccc(N(CC(=O)Nc2cccc(Cl)c2C)S(C)(=O)=O)c1C`: the inhibition is 14.2%. Take `CC(C)CCNC(=O)c1cccc(-n2cnc3cccnc32)c1`: the inhibition was determined as 2.51%.

Source of the values: PubChem BioAssay AID485344 (National Center for Advancing Translational Sciences (NCATS), 2010).
